This is one part of the list.
These compounds were tested on HSkMC (human skeletal muscle cells) (assay: cytotoxicity call (relative viability < 0.9)). Settings: 10 µM.
With COc1ccc(CNC(=O)C[C@@H]2CC[C@H]3[C@@H](COC[C@H](O)CN3S(=O)(=O)c3ccc(C)cc3)O2)cc1OC the cytotoxicity call was “inactive”. With C[C@@H]1CCCCO[C@@H](CN(C)C(=O)Nc2ccc(F)cc2)[C@H](C)CN([C@@H](C)CO)C(=O)c2cc(NC(=O)Nc3ccccc3)ccc2O1 the cytotoxicity call was “inactive”. For COc1ccc(S(=O)(=O)N(C)C[C@H]2Oc3ccc(NS(=O)(=O)c4cn(C)cn4)cc3C(=O)N([C@@H](C)CO)C[C@@H]2C)cc1, the cytotoxicity call was “inactive”. In the case of C[C@@H]1CCCCO[C@@H](CN(C)C(=O)C2CCCCC2)[C@@H](C)CN([C@H](C)CO)C(=O)c2cc(NC(=O)Nc3ccc(F)cc3)ccc2O1, the cytotoxicity call is reported as “inactive”. In the case of C[C@@H]1CN([C@H](C)CO)C(=O)Cc2cc(NC(=O)c3ccncc3)ccc2O[C@@H]1CN(C)C(=O)NC1CCCCC1, the cytotoxicity call is reported as “inactive”. For CCCN1C[C@H](C)[C@H](OC)CN(C)C(=O)c2cc(NS(=O)(=O)c3cn(C)cn3)ccc2OC[C@@H]1C, the cytotoxicity call was “inactive”. For COc1ccc(C#Cc2cnc3c(c2)C(=O)N([C@H](C)CO)C[C@H](C)[C@H](CN(C)C(=O)CC2CC2)O3)cc1, the cytotoxicity call was “inactive”. With C[C@@H](NC(=O)C[C@H]1CC[C@H](NC(=O)CN2CCOCC2)[C@H](CO)O1)c1ccccc1 the cytotoxicity call was “inactive”. With C[C@@H]1CN([C@@H](C)CO)C(=O)CCCn2cc(nn2)CO[C@H]1CN(C)S(=O)(=O)c1ccc(Oc2ccccc2)nc1 the cytotoxicity call was “inactive”. COc1ccc(NC(=O)Nc2ccc3c(c2)CC(=O)N([C@H](C)CO)C[C@@H](C)[C@H](CN(C)S(=O)(=O)c2c(C)noc2C)O3)cc1 was tested, and the cytotoxicity call was “inactive”. For CN(C)CCCC[C@@H]1NC(=O)[C@@H]2C[C@H](C(=O)NCCCCCCNC(=O)CS)[C@H](c3cccc(OCCO)c3)N2C1=O, the cytotoxicity call was “inactive”. For COc1ccc(S(=O)(=O)Nc2ccc3c(c2)C(=O)N([C@@H](C)CO)C[C@H](C)[C@H](CN(C)C(=O)Nc2cccc4ccccc24)OCCCC[C@@H](C)O3)cc1, the cytotoxicity call was “inactive”. With CO[C@H]1O[C@H](CO)[C@@H](OC(=O)c2ccc(Br)cc2)[C@@H]2OC(=O)[C@@H](Cc3ccc4ccccc4c3)C/C=C/C[C@H](Cc3ccc4ccccc4c3)C(=O)O[C@@H]12 the cytotoxicity call was “inactive”. With CC(C)CC#Cc1cnc2c(c1)C(=O)N([C@H](C)CO)C[C@H](C)[C@H](CN(C)S(=O)(=O)c1cccs1)O2 the cytotoxicity call was “inactive”. With C[C@@H]1CN([C@@H](C)CO)C(=O)c2cccc(NC(=O)C3CC3)c2O[C@@H]1CN(C)Cc1ccc(Oc2ccccc2)cc1 the cytotoxicity call was “inactive”. CC(C)NC(=O)Nc1cccc2c1O[C@@H](CN(C)C(=O)NC1CCCCC1)[C@@H](C)CN([C@@H](C)CO)C2=O was tested, and the cytotoxicity call was “inactive”. COc1ccc([Si](C)(C)[C@@H]2[C@@H](CC(=O)N(CCO)Cc3ccccc3)O[C@]3(C(=O)N(Cc4ccc(N5C(=O)c6cccc7cccc5c67)cc4)c4ccccc43)[C@H]2C)cc1 was tested, and the cytotoxicity call was “inactive”. For CC(C)(C)Cc1ccc(OCCCC(=O)O)c(CC(C)(C)C)c1, the cytotoxicity call was “inactive”. COc1ccc(S(=O)(=O)N(C)C[C@@H]2Oc3c(NS(=O)(=O)c4ccc(C)cc4)cccc3C(=O)N([C@H](C)CO)C[C@H]2C)cc1 was tested, and the cytotoxicity call was “inactive”. For O=C(c1cnccn1)N1CCC2(CCCN2)CC1, the cytotoxicity call was “inactive”. With O[C@@H]1[C@@H](O)[C@H](Br)C=C[C@H]1O the cytotoxicity call was “inactive”. With CNC1C(OC2OC(CO)C(N)C(O)C2O)OC2CC(N)C(OC3C(N)CC(N)C(O)C3O)OC2C1O.O=S(=O)(O)O (stereo not given) the cytotoxicity call was “inactive”. For CC(=O)NCc1c(I)c(NC(C)=O)c(I)c(C(=O)O)c1I, the cytotoxicity call was “inactive”. In the case of C[C@H](CO)N1C[C@H](C)[C@@H](CN(C)S(C)(=O)=O)Oc2ccc(NC(=O)Cc3ccccc3)cc2C1=O, the cytotoxicity call is reported as “inactive”. In the case of CN1CCc2c(n[nH]c2CNc2ncccn2)C1, the cytotoxicity call is reported as “inactive”. C[C@H](CO)N1C[C@H](C)[C@@H](CN(C)C(=O)c2ccccc2)OCCCC[C@H](C)Oc2ccc(NC(=O)Nc3ccccc3)cc2C1=O was tested, and the cytotoxicity call was “inactive”. O=C(NC1CCCCC1)N1c2ccccc2C=Cc2ccccc21 was tested, and the cytotoxicity call was “inactive”. With C[C@H]1CN([C@@H](C)CO)C(=O)c2cccc(NC(=O)c3ccc(-c4nccs4)cc3)c2O[C@@H]1CN(C)C(=O)Nc1ccc2c(c1)OCO2 the cytotoxicity call was “inactive”. In the case of C[C@@H]1CN([C@@H](C)CO)C(=O)c2cc(NC(=O)Nc3ccccc3)ccc2O[C@@H](C)CCCCO[C@H]1CN(C)S(=O)(=O)c1ccccc1, the cytotoxicity call is reported as “inactive”. In the case of C[C@H]1CN([C@@H](C)CO)C(=O)c2cc(NS(=O)(=O)c3ccc(F)cc3)ccc2O[C@@H]1CN(C)Cc1ccc(-c2ccccc2)cc1, the cytotoxicity call is reported as “inactive”. With Cn1cnc(S(=O)(=O)N2C[C@@H](O)COC[C@H]3O[C@@H](CC(=O)NC4Cc5ccccc5C4)CC[C@@H]32)c1 the cytotoxicity call was “inactive”. In the case of COc1ccc(CN(C)C[C@@H]2Oc3ccc(NC(=O)Nc4ccc(C(F)(F)F)cc4)cc3C(=O)N([C@@H](C)CO)C[C@@H]2C)cc1, the cytotoxicity call is reported as “active”. In the case of COc1ccc2c3c([nH]c2c1)[C@@H](CO)N(C[C@]13CCN(CC1)CC1CCOCC1)S(=O)(=O)c1cn(cn1)C, the cytotoxicity call is reported as “inactive”. With Cc1noc(C)c1NC(=O)Nc1cccc2c1O[C@@H](CN(C)S(=O)(=O)c1ccccc1)[C@@H](C)CN([C@@H](C)CO)C2=O the cytotoxicity call was “inactive”. For C1CNCCN1, the cytotoxicity call was “inactive”. For C[C@@H]1CCCCO[C@@H](CN(C)C(=O)C2CCCCC2)[C@H](C)CN([C@@H](C)CO)C(=O)c2cc(NC(=O)Nc3ccc4c(c3)OCO4)ccc2O1, the cytotoxicity call was “inactive”. For C[C@@H]1CN([C@@H](C)CO)C(=O)Cc2cc(NC(=O)Cn3cnnn3)ccc2O[C@H]1CN(C)S(=O)(=O)c1ccc(Cl)cc1, the cytotoxicity call was “inactive”. In the case of C[C@H]1CN([C@@H](C)CO)C(=O)c2cc(N(C)C)ccc2O[C@@H]1CN(C)S(=O)(=O)c1ccc(Cl)cc1, the cytotoxicity call is reported as “inactive”. In the case of C[C@@H]1CN([C@@H](C)CO)C(=O)c2cc(NC(=O)Nc3cccc4ccccc34)ccc2O[C@@H](C)CCCCO[C@H]1CN(C)C(=O)CCCN(C)C, the cytotoxicity call is reported as “inactive”. C[C@@H]1CN([C@@H](C)CO)C(=O)c2cccc(NC(=O)Nc3cccc4ccccc34)c2O[C@H]1CN(C)S(=O)(=O)c1cccs1 was tested, and the cytotoxicity call was “inactive”.

— the antibiotic and cytotoxicity screens of Wong et al. (2023)
